The list shows a part of the results.

Our source for the binding signal values is PMC7819943, “Rice protein-binding microarrays: a tool to detect cis-acting elements near promoter regions in rice”.

This assay addresses T1, OsWOX13 (Oryza sativa, UniProt Q5QMM3 1-267).
T1 sequence: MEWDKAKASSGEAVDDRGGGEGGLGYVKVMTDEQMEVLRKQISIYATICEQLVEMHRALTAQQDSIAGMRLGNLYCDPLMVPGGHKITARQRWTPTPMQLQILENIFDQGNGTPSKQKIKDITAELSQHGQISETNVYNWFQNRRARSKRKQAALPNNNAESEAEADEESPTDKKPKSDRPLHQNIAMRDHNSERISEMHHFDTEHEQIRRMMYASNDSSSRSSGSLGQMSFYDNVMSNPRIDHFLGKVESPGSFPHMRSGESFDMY
The assay can be described thus: protein-binding microarray (RPBM); PBS, 2% BSA, 51.3 ng/ul salmon testes DNA, 50 uM zinc acetate, 200 nM TF, 25 C, 1 h; high values mean tight binding. The settings on record: protein: recombinant; tags: N-terminal polyhistidine and DsRed monomer fusion (pET32a); label: CyDye5-dUTP incorporated in the synthesized complementary strand; 3' TTTTT single-stranded linker to array surface; dsDNA, one strand shown. The method, boiled down: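 The binding signal for each feature is its fluorescence intensity in arbitrary units. An Axon 4000B scanner was used to read a custom Agilent array that had been made double-stranded with Cy5-dUTP primer extension, blocked with 2% BSA, incubated at 25 °C for 1 h with 200 nM protein in PBS, 2% BSA, salmon testes DNA and 50 µM zinc acetate, and washed. The protein was an N-terminal polyhistidine–DsRed transcription factor fusion from E. coli BL21-CodonPlus, purified on Ni–NTA.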
With “ACGTGCTAATTAACTTCTTAAAGAGCTGACCTTAAAATATCGGAGTCACCTAGTGCAG”, the binding signal was 3190 fluorescence intensity (a.u.).
On to “ATCGAAACGGATGGATGGCAAATTGGCAATATGGCATGGCCGGAGTCACCTAGTGCAG”, for which the binding signal was 3560 fluorescence intensity (a.u.).
With “GCATTGTAATTAATATGGGCAAAATAGGAAATAAACACCCCGGAGTCACCTAGTGCAG” the figure was 9020 fluorescence intensity (a.u.).
With “TGAAGATATGGTAATTGGTGTCCATTATGGTATTTCTTAGCGGAGTCACCTAGTGCAG” the figure was 3930 fluorescence intensity (a.u.); with “CAGTAATTGTCACTATCTTATTACACATTATTCTGTCCAGCGGAGTCACCTAGTGCAG”, 25700 fluorescence intensity (a.u.); with “AGGGTCAATCAGTTCCTCCACTTTTGTCACGAGATTAGCGCGGAGTCACCTAGTGCAG”, 8570 fluorescence intensity (a.u.).
For “TGTGATTGGTTAAGAAGTGGAGGTAGTTAGGAAAAGTGAACGGAGTCACCTAGTGCAG”, the binding signal is 31800 fluorescence intensity (a.u.).
The figure for “GTTGTTAGATGATAAAACATGATTAATATTCTATGCGTGACGGAGTCACCTAGTGCAG” is 4840 fluorescence intensity (a.u.); for “ATTGATTAGTAGTAATTAATTAGTTATAAACTACACGCGCCGGAGTCACCTAGTGCAG” it is 58700 fluorescence intensity (a.u.); for “ATTCGTGTCAAATTTAGAACTTAATCGGATGGACTAGTTGCGGAGTCACCTAGTGCAG” it is 3300 fluorescence intensity (a.u.).
With “CCAAAATAAACAACCAAAATTTCGCCGTGTAACTAACTCTCGGAGTCACCTAGTGCAG” the figure was 3300 fluorescence intensity (a.u.); with “GTACTTGATAGTTCAGTGATAAGGGGTGTGATTTCAACCCCGGAGTCACCTAGTGCAG”, 4490 fluorescence intensity (a.u.); with “GCGAGAGGGGACTGGGGAGGGGAGGGGCGGCGCTCGCTGGCGGAGTCACCTAGTGCAG”, 6420 fluorescence intensity (a.u.).
Regarding “AGTGGACAAAATGACATTTGATTACTTTGAAAAGTAACAACGGAGTCACCTAGTGCAG”, the binding signal is 3920 fluorescence intensity (a.u.).
With “TTAACATTAACAGATTCATGTATATTTACATGTTTATATACGGAGTCACCTAGTGCAG” the figure was 3370 fluorescence intensity (a.u.).
As for “CTTTAAATCATTTATAACATCATCTAATATGTCTACAACGCGGAGTCACCTAGTGCAG”, the binding signal is 14900 fluorescence intensity (a.u.).
The figure for “CAAATTTAGACGGCTAAGATATCTTCAATCGTGCAGCCCTCGGAGTCACCTAGTGCAG” is 4620 fluorescence intensity (a.u.).
With “CTATAATAATTTATTGTGATTTTGTGTACGTTGGTTAGACCGGAGTCACCTAGTGCAG”, the binding signal is 43500 fluorescence intensity (a.u.).
The figure for “CATGATTAGGCGTCCAATTACCAAATTCTAAGCCCACAATCGGAGTCACCTAGTGCAG” is 14700 fluorescence intensity (a.u.); for “TTAAAACTTGATTTGGATCAATGCTTTTCTAACGTAGTTTCGGAGTCACCTAGTGCAG” it is 7870 fluorescence intensity (a.u.); for “GTCGGAGATTGATAACTCAATATCACTATTTGTGAACTGACGGAGTCACCTAGTGCAG” it is 39000 fluorescence intensity (a.u.).
With “CAAGAACCAATAATTTGCAAACTGTAGGGCACAGTTCGATCGGAGTCACCTAGTGCAG” the figure was 6920 fluorescence intensity (a.u.); with “TTTTAAATTTTGAGTTGAAAATTTTCAAATTTGAACTTGACGGAGTCACCTAGTGCAG”, 3880 fluorescence intensity (a.u.).
The figure for “GTAATTACGTCTGTATATTATAAACCAGTAAACCACTGCTCGGAGTCACCTAGTGCAG” is 5390 fluorescence intensity (a.u.).
Regarding “GAAGGAGATTGGGGAGATTGGGAAGATACGTAAAACGAGGCGGAGTCACCTAGTGCAG”, the binding signal is 23300 fluorescence intensity (a.u.).
The figure for “CTTCCAATTTGAGATTTGAAAACTTTCAACTCGAGATTCGCGGAGTCACCTAGTGCAG” is 4020 fluorescence intensity (a.u.); for “CATCAACAGCAATCAGTCAGTCCAGTGTGTATCTGATACTCGGAGTCACCTAGTGCAG” it is 4440 fluorescence intensity (a.u.); for “ATAAATTATTGAATCAATGCATTCTATTTATCCTGAGGACCGGAGTCACCTAGTGCAG” it is 23200 fluorescence intensity (a.u.).
The figure for “ACAGATATTACAGCACTGATTAGCACTTCTCAGGTGTCTTCGGAGTCACCTAGTGCAG” is 21500 fluorescence intensity (a.u.).
The figure for “ACCTAATAGCAAATTCTTAATTCCCAACCATAATGTCTTCCGGAGTCACCTAGTGCAG” is 3350 fluorescence intensity (a.u.); for “TTTAATTGATAAATATTATCAATTATTAAACAGATAAGCGCGGAGTCACCTAGTGCAG” it is 62800 fluorescence intensity (a.u.).
For “AGTTCTTCATCAATATGATTAAGTGTGACATCAGGCCTGACGGAGTCACCTAGTGCAG”, the binding signal is 5180 fluorescence intensity (a.u.).
As to “CTAAATTTGACTAAGTTTGTAGAAAACAATTAGTAACATTCGGAGTCACCTAGTGCAG”, the binding signal is 7080 fluorescence intensity (a.u.).
With “TTACCAGAATTAAAATTCTAATTATCTTGCCGCTTCCAAACGGAGTCACCTAGTGCAG” the figure was 4610 fluorescence intensity (a.u.); with “ATATATATATATATATATATTAAATTTGTTTGGTGCTCCACGGAGTCACCTAGTGCAG”, 10000 fluorescence intensity (a.u.).
“TACTTAATTTCTTTTAAATTGGTTCATATGTGTTTAGTTGCGGAGTCACCTAGTGCAG”: the binding signal is 49300 fluorescence intensity (a.u.).
With “AGGCGATTGATATTATCGTTGAACGCTTGGAGAAGGAGTCCGGAGTCACCTAGTGCAG” the figure was 29900 fluorescence intensity (a.u.); with “TCCAGTCAATCAAACGCGTCGACGAACCCAGTCAATACAACGGAGTCACCTAGTGCAG”, 26800 fluorescence intensity (a.u.); with “CACTAATTTCTAGGGCTTGTTTTATCGCCAATAAGTGTAACGGAGTCACCTAGTGCAG”, 6120 fluorescence intensity (a.u.).
With “GCAGGTAATTGGGAGGGAATTCCTCCTTTACTTTGTCTAACGGAGTCACCTAGTGCAG” the figure was 22100 fluorescence intensity (a.u.).
The figure for “TGGTAATTGAATACGTAAGCCGAACACTATGCTTCTAATACGGAGTCACCTAGTGCAG” is 25000 fluorescence intensity (a.u.); for “AGCAATTAGACAAAGGACTTGATCTGGACTTATATCTAACCGGAGTCACCTAGTGCAG” it is 3840 fluorescence intensity (a.u.).
